# Test results: the supplement of paper PMC11417369
# ± gives the standard deviation of the averaged measurements. This is one part of the list.
# Test system: PfAP2-G AP2 domain (GST-tagged)
# Experiment: gcPBM binding intensity (ln(normalized median fluorescence intensity)); higher = stronger DNA binding
# Summary of the method: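 For binding intensity, the highest Masliner-normalised natural-log median intensity across replicate spots of either probe orientation was taken. Protein bound to the array was stained with Alexa488 anti-GST antibody and scanned at 488 nm. The protein, GST-tagged P. falciparum DNA-binding domains from E. coli at about 25 μg on average, had been applied for 1 h to an Agilent 4 × 180k array of primer-extended double-stranded 36-bp intergenic genomic probes and negative controls.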
row,Sequence,gcPBM binding intensity (ln)
1,TTCTTTATATAAACAAGTACATATAAAATACATATA [XGTACX_site8036],11.2 ± 0.79
2,TATATATTAAGATGCACACACAAGAAGTAATTATAA [CACACA_site5726],10.2 ± 0.13
3,ATTTTTTCTTATAAAAAAGAAAAAGAAAAAGAAAAA [CACACA_negctrl_site1216],10.2 ± 0.28
4,AGTATATTTCTAACTTGTACGAAATTAATAATTTAT [XGTACX_site6635],10.9 ± 0.74
5,TGATATAAAATTAAAGTGCAAAAAAAAAATAAAAAA,10.1 ± 0.33
6,ATAATATTATGAACCTGTACATAATTTTTCTTTTCT [XGTACX_site3377],11 ± 0.67
7,AAAAAAAAGAAATAGACACACATATATTTTTAAACA [CACACA_site3954],9.825 ± 0.078
8,TATATATAATATGAATGTACACAAAAAGGTAATACA [XGTACX_site6202],11.4 ± 0.68
9,AACAGCATGAAGTAAAGTACTAGTTTTATTTATTTA [XGTACX_site1116],10.7 ± 0.4
10,GGTCTTTTTATGATATGTACTTATATAATATTATAT [XGTACX_site6458],11.2 ± 0.76
11,ATGTAGAAGTAATGCACACATATGTATATATATATA [CACACA_site2494],10.2 ± 0.31
12,TGATAAGTATACTAAAGTACATGAAAAATAACTTCC [XGTACX_site6908],11.1 ± 0.76
13,TCCTAATGGTTTAATTGTACAAAAAAAAAAAATATA [XGTACX_site322],11 ± 0.6
14,ATAGATGTCTTCATATGTACATAAATTCAAGTATAT [XGTACX_site7492],11.3 ± 0.76
15,TGATTATAAAAGTAGGTGCTACAAAAATTACACATT [GTGCAC_site9530],10.03 ± 0.099
16,CAAAATATTATGAATTGTACATATTTTAAAACGTTT [XGTACX_site1614],11 ± 0.7
17,AGGAAATTTTTTTTTTTTTTTTTTTTTTTTTTTTAC [TGCATGCA_negctrl_site170],9.505 ± 0.049
18,ATAATATATAATATAGTGCATTATTTATTAATTAAT [GTGCAC_site9852],9.875 ± 0.035
19,AATGAAAAGGAACATACACACCCCATATAAATATAT [CACACA_site7588],10.21 ± 0.071

row,Sequence,gcPBM binding intensity (ln)
1,TATTTCTTATGAAGGACATGCAATATTATTTATCTC [TGCATGCA_site683],10.6 ± 0.4
2,TTTTTTTTAATTTTCTGTACAAATTTATATATACTA [XGTACX_site4251],10.8 ± 0.49
3,TTATATTTTAAGAAATGTACATGATATAATTATCAA [XGTACX_site8693],11 ± 0.6
4,TGGATGAGGACATACACACACACATAAGTTGATACA [CACACA_site3423],10.9 ± 0.69
5,ACAAAACATAATTGTTGTACAAAAAGAATTATATAT [XGTACX_site8422],11.2 ± 0.67
6,ATAATAATATAATATTCACACAATTGAAATAGTGTA [CACACA_site6083],9.64 ± 0.12
7,TTTCGAATTAAAGCATGTGAAAATTTTCAAAAAATA [XGTACX_negctrl_site577],9.95 ± 0.057
8,GAATCACTAATTTTTTTACACACCACAATTTAATTT [CACACA_site8311],10.12 ± 0.049
9,AAATAAAAATTACAAGCATGCATTTTCCTATTTGCA [TGCATGCA_site861],9.38 ± 0.37
10,GAATAAATTGTATTGTGTACATATAAAAGCATCTAA [XGTACX_site8271],11.4 ± 0.78
11,AAAAAATTTTGAAATTGTACATATATAAAAAATATA [XGTACX_site2629],10.9 ± 0.57
12,TTTAAATATATTAATACACACACGATATGTACAAAA [CACACA_site539],11.3 ± 0.67
13,TATAAATATACAAAGGTGCATAAAAAGTTATGTTTT [GTGCAC_site9832],10.1 ± 0.13
14,TTTCTATAATATTCTACACACCAACAACAAACATAT [CACACA_site6409],10.4 ± 0.41
15,TTTTTTTTTTTTTTTACACACACAAAATATTATATG [CACACA_site2471],9.99 ± 0.38
16,TATTATTTACCTTGCTAGTTCGTTCCAAATTTTATG [XGTACX_negctrl_site197],10.35 ± 0.028
17,ATGTTTGATGCTACACGTACACACCTTGCAAATATT [XGTACX_site1644],11.6 ± 1
18,TATATTATTCATTAAGCACACATTATTTTTATAATA [CACACA_site6056],10 ± 0.17
19,AAAACTATAATAAAAGGTACACATTTATTTTTTTCT [XGTACX_site730],11.2 ± 0.95

row,Sequence,gcPBM binding intensity (ln)
1,TTTATATGTATTAAGTGTACACATATAATGTGTTTT [XGTACX_site4890],11.6 ± 0.87
2,TATTCTAATATATGCATACACACAAATGTGAATATA [CACACA_site2143],9.96 ± 0.13
3,CACATTATGTATCATACACACAAATAAATATAGAAT [CACACA_site609],10.4 ± 0.18
4,ATTTTAAATATTTGTGGTACCCCTTTTTTGTAACAA [XGTACX_site5590],11.8 ± 1.1
5,TAAAAAAGAACAGAAACACACAAATAAAATAAAATT [CACACA_site1758],9.96 ± 0.11
6,CAAAATTGAAGGAACACACATACATATATATATATG [CACACA_site179],10.2 ± 0.24
7,AAATAAAAAGGGTGCACACAAAAATATATATATATA [CACACA_site1728],10.8 ± 0.88
8,CTTTGTGGTATAGATACACACTATATTAATATGAAC [CACACA_site7081],10.3 ± 0.17
9,TCATATTTTACATATGCATGTTAATAATACAAACAT [TGCATGCA_site994],9.765 ± 0.021
10,TTTTTTTCGTATATTACACACTATAAATAGAAATTA [CACACA_site6278],10 ± 0.25
11,ATTTATTTATGTATTTGTACGTATATATTTATGCAT [XGTACX_site5218],11.3 ± 0.83
12,GTATAACAACTGATAAAAGAAAAAAAATTTATTATT [CACACA_negctrl_site377],9.73 ± 0.17
13,ATAATATTTTTAAACTGTACTTTTATAAACACTTAT [XGTACX_site2625],11.5 ± 0.98
14,AATAGTTATAAATATAAATATATATATATATATATA [CACACA_negctrl_site414],9.89 ± 0.56
15,AATAAATATTCATTTTGTACATATTTTTCGTATATG [XGTACX_site6104],10.9 ± 0.57
16,TTACCATAAGTATGTGGTACACTTTAAATGAAGATA [XGTACX_site6972],11.4 ± 0.83
17,ATATTATGTCTACATAAACACACATATATATAAAAA [CACACA_site7976],10.09 ± 0.042
18,TTAACATCAAAATATGCACACAAACAATTAGCGGTA [CACACA_site8801],10.1 ± 0.085
19,TATATATATAAATACACACACACCCTAAAAATATAT [CACACA_site4970],10.3 ± 0.24
